Values quoted from earlier work as cited in patent US4092420A, “Novel soft N-chloroamino alcohol derivatives exhibiting antibacterial activity” (INTERx Research Corporation, priority 1977, dated 1978).

Legend:
[1] = prior art; cited from earlier work
[2] = prior art; cited from earlier work; remark: listed apart in the source

**Q.** Which Toxicity [1] does the source give for `ClN(Cl)Cl` [NCl3] here?
**A.** well-known toxic material

**Q.** Which “Stability (decomposition / disproportionation)” value [2] does the source give for `COC(=O)CN(C)Cl` [methyl N-chlorosarcosinoate] here?
**A.** explosive decomposition upon isolation
